This is one part of the list.
Columns and labels:
Experiment in all cases: glycan array binding signal (z-score within array); higher = stronger binding
Details in all cases: glycan notation: IUPAC condensed, linker removed
[1] = molecular target: Neu5Ac(a2-6)Gal(b1-4)GlcNAc(b1-3)Gal(b1-4)GlcNAc(b1-3)Gal(b1-4)GlcNAc(b1-2)Man(a1-3)[Neu5Ac(a2-6)Gal(b1-4)GlcNAc(b1-3)Gal(b1-4)GlcNAc(b1-3)Gal(b1-4)GlcNAc(b1-2)Man(a1-6)]GalNAc
In short: (§1)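 The binding signal is a Z-score computed within each array and averaged over linkers. Arrays of the same protein sequence at different concentrations or buffers were also averaged together. Data originate from 3228 arrays in the Consortium for Functional Glycomics database, kept only where the protein sequence was available.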

[2] = molecular target: Neu5Ac(a2-6)Gal(b1-4)GlcNAc(b1-3)Gal(b1-4)GlcNAc(b1-3)GalNAc
In short: as §1

[3] = molecular target: Neu5Ac(a2-6)Gal(b1-4)GlcNAc(b1-3)Gal(b1-4)GlcNAc(b1-3)[Neu5Ac(a2-6)Gal(b1-4)GlcNAc(b1-3)Gal(b1-4)GlcNAc(b1-6)]GalNAc
In short: as §1

[4] = molecular target: Neu5Ac(a2-6)Gal(b1-4)GlcNAc(b1-3)Gal(b1-4)GlcNAc(b1-6)[Gal(b1-3)]GalNAc
In short: as §1

[5] = molecular target: Neu5Ac(a2-6)Gal(b1-4)GlcNAc(b1-3)Gal(b1-4)[Fuc(a1-3)]GlcNAc(b1-3)Gal(b1-4)[Fuc(a1-3)]GlcNAc
In short: as §1

[6] = molecular target: Neu5Ac(a2-6)Gal(b1-4)GlcNAc(b1-3)GalNAc
In short: as §1

[7] = molecular target: Neu5Ac(a2-6)Gal(b1-4)GlcNAc(b1-3)[Neu5Ac(a2-6)Gal(b1-4)GlcNAc(b1-6)]GalNAc
In short: as §1

[8] = molecular target: Neu5Ac(a2-6)Gal(b1-4)GlcNAc(b1-6)GalNAc
In short: as §1

[9] = molecular target: Neu5Ac(a2-6)Gal(b1-4)GlcNAc(b1-6)[Gal(b1-3)GlcNAc(b1-3)]Gal(b1-4)Glc
In short: as §1

[10] = molecular target: Neu5Ac(a2-6)Gal(b1-4)GlcNAc(b1-6)[Gal(b1-3)]GalNAc
In short: as §1

[11] = molecular target: Neu5Ac(a2-6)Gal(b1-4)GlcNAc6S
In short: as §1

Neu5Ac(a2-6)GalNAc = molecular target: Neu5Ac(a2-6)GalNAc
In short: as §1

[12] = molecular target: Neu5Ac(a2-6)GalNAc(b1-4)GlcNAc
In short: as §1

[13] = molecular target: Neu5Ac(a2-6)GalNAc(b1-4)GlcNAc6S
In short: as §1

[14] = molecular target: Neu5Ac(a2-6)GlcNAc(b1-4)GlcNAc
In short: as §1

[15] = molecular target: Neu5Ac(a2-6)GlcNAc(b1-4)GlcNAc(b1-4)GlcNAc
In short: as §1

Neu5Ac(a2-8)Neu5Ac = molecular target: Neu5Ac(a2-8)Neu5Ac
In short: as §1

[16] = molecular target: Neu5Ac(a2-8)Neu5Ac(a2-3)Gal(b1-3)GalNAc(b1-4)[Neu5Ac(a2-3)]Gal(b1-4)Glc
In short: as §1

[17] = molecular target: Neu5Ac(a2-8)Neu5Ac(a2-3)Gal(b1-3)GalNAc(b1-4)[Neu5Ac(a2-8)Neu5Ac(a2-3)]Gal(b1-4)Glc
In short: as §1

[18] = molecular target: Neu5Ac(a2-8)Neu5Ac(a2-3)Gal(b1-4)Glc
In short: as §1

[19] = molecular target: Neu5Ac(a2-8)Neu5Ac(a2-3)Gal(b1-4)GlcNAc
In short: as §1

[20] = molecular target: Neu5Ac(a2-8)Neu5Ac(a2-3)[Gal(b1-3)GalNAc(b1-4)]Gal(b1-4)Glc
In short: as §1

[21] = molecular target: Neu5Ac(a2-8)Neu5Ac(a2-3)[GalNAc(b1-4)]Gal(b1-4)Glc
In short: as §1

[22] = molecular target: Neu5Ac(a2-8)Neu5Ac(a2-8)Neu5Ac
In short: as §1

[23] = molecular target: Neu5Ac(a2-8)Neu5Ac(a2-8)Neu5Ac(a2-3)Gal(b1-4)Glc
In short: as §1

[24] = molecular target: Neu5Ac(a2-8)Neu5Ac(a2-8)Neu5Ac(a2-3)[Gal(b1-3)GalNAc(b1-4)]Gal(b1-4)Glc
In short: as §1

[25] = molecular target: Neu5Ac(a2-8)Neu5Ac(a2-8)Neu5Ac(a2-3)[GalNAc(b1-4)]Gal(b1-4)Glc
In short: as §1

[26] = molecular target: Neu5Ac(a2-8)Neu5Ac(a2-8)Neu5Ac(a2-8)Neu5Ac(a2-3)[GalNAc(b1-4)]Gal(b1-4)Glc
In short: as §1

[27] = molecular target: Neu5Ac(a2-8)Neu5Gc(a2-3)Gal(b1-4)GlcNAc
In short: as §1

[28] = molecular target: Neu5Ac(b2-6)Gal(b1-4)GlcNAc
In short: as §1

Neu5Ac(b2-6)GalNAc = molecular target: Neu5Ac(b2-6)GalNAc
In short: as §1

[29] = molecular target: Neu5Ac9Ac(a2-3)Gal(b1-4)GlcNAc
In short: as §1

[30] = molecular target: Neu5Ac9Ac(a2-6)Gal(b1-4)GlcNAc
In short: as §1

[31] = molecular target: Neu5Gc(a2-3)Gal(b1-3)GlcNAc
In short: as §1

[32] = molecular target: Neu5Gc(a2-3)Gal(b1-3)[Fuc(a1-4)]GlcNAc
In short: as §1

Neu5Gc(a2-3)Gal(b1-4)Glc = molecular target: Neu5Gc(a2-3)Gal(b1-4)Glc
In short: as §1

[33] = molecular target: Neu5Gc(a2-3)Gal(b1-4)GlcNAc
In short: as §1

[34] = molecular target: Neu5Gc(a2-3)Gal(b1-4)GlcNAc(b1-3)Gal(b1-4)GlcNAc(b1-2)Man(a1-3)[Neu5Gc(a2-3)Gal(b1-4)GlcNAc(b1-3)Gal(b1-4)GlcNAc(b1-2)Man(a1-6)]Man(b1-4)GlcNAc(b1-4)GlcNAc
In short: as §1

[35] = molecular target: Neu5Gc(a2-3)Gal(b1-4)[Fuc(a1-3)]GlcNAc
In short: as §1

[36] = molecular target: Neu5Gc(a2-6)Gal(b1-4)GlcNAc
In short: as §1

Neu5Gc(a2-6)GalNAc = molecular target: Neu5Gc(a2-6)GalNAc
In short: as §1

[37] = molecular target: Neu5Gc(a2-8)Neu5Ac(a2-3)Gal(b1-4)GlcNAc
In short: as §1

[38] = molecular target: Neu5Gc(a2-8)Neu5Gc(a2-3)Gal(b1-4)GlcNAc
In short: as §1

[39] = molecular target: Neu5Gc(a2-8)Neu5Gc(a2-3)Gal(b1-4)GlcNAc(b1-3)Gal(b1-4)GlcNAc
In short: as §1

[40] = molecular target: Neu5Gc(a2-8)Neu5Gc(a2-6)Gal(b1-4)GlcNAc
In short: as §1

B1: CLECb-Precomplexed (Mus musculus), P43025 (protein)
chain: MAKNGLVLCILVVSLLLDQTDGYPSRMKARKHSKRRVKAKDDDLKSQVEKLWREVNALKEMQALQTVCLRGTKVHKKCYLASEGLKHYHEANEDCISKGGTLVVPRNSDEINALRDYGKRSLPGVNDFWLGINDMVTEGKFLDVHGFAVSFLNWDRAQPSGGKRENCVLFSQSAQGKWSDEACRSSKRYICEFIIPTRTRPLEQKLISEEDLAANDILDYKDDDDKV
For B1, the “glycan array binding signal (z-score)” value [1] was 3.49, the “glycan array binding signal (z-score)” value [2] was -0.285 and the “glycan array binding signal (z-score)” value [3] was -0.368. The “glycan array binding signal (z-score)” value [4] was -0.339, the “glycan array binding signal (z-score)” value [5] was -0.549 and the “glycan array binding signal (z-score)” value [6] was 1.18. The “glycan array binding signal (z-score)” value [7] was -0.64, the “glycan array binding signal (z-score)” value [8] was -0.372 and the “glycan array binding signal (z-score)” value [9] was -0.204. For the same binder, the “glycan array binding signal (z-score)” value [10] was -0.007, the “glycan array binding signal (z-score)” value [11] was 0.146 and the “glycan array binding signal (z-score)” value (Neu5Ac(a2-6)GalNAc) was -0.073. The “glycan array binding signal (z-score)” value [12] was 0.101, the “glycan array binding signal (z-score)” value [13] was 0.238 and the “glycan array binding signal (z-score)” value [14] was -0.392. The “glycan array binding signal (z-score)” value [15] was -0.456, the “glycan array binding signal (z-score)” value (Neu5Ac(a2-8)Neu5Ac) was -0.545 and the “glycan array binding signal (z-score)” value [16] was 0.041. The “glycan array binding signal (z-score)” value [17] was -0.594, the “glycan array binding signal (z-score)” value [18] was 0.106 and the “glycan array binding signal (z-score)” value [19] was -0.324. The “glycan array binding signal (z-score)” value [20] was -0.221, the “glycan array binding signal (z-score)” value [21] was 1.22 and the “glycan array binding signal (z-score)” value [22] was -0.333. The “glycan array binding signal (z-score)” value [23] was 0.021, the “glycan array binding signal (z-score)” value [24] was -0.476 and the “glycan array binding signal (z-score)” value [25] was -0.473. The “glycan array binding signal (z-score)” value [26] was -0.152, the “glycan array binding signal (z-score)” value [27] was -0.143 and the “glycan array binding signal (z-score)” value [28] was -0.315. The “glycan array binding signal (z-score)” value (Neu5Ac(b2-6)GalNAc) was -0.514, the “glycan array binding signal (z-score)” value [29] was -0.451 and the “glycan array binding signal (z-score)” value [30] was -0.001. For the same binder, the “glycan array binding signal (z-score)” value [31] was -0.28, the “glycan array binding signal (z-score)” value [32] was -0.096 and the “glycan array binding signal (z-score)” value (Neu5Gc(a2-3)Gal(b1-4)Glc) was -0.211. For the same binder, the “glycan array binding signal (z-score)” value [33] was -0.188, the “glycan array binding signal (z-score)” value [34] was 0.148 and the “glycan array binding signal (z-score)” value [35] was -0.483. For the same binder, the “glycan array binding signal (z-score)” value [36] was -0.412, the “glycan array binding signal (z-score)” value (Neu5Gc(a2-6)GalNAc) was -0.159 and the “glycan array binding signal (z-score)” value [37] was -0.13. For the same binder, the “glycan array binding signal (z-score)” value [38] was -0.162, the “glycan array binding signal (z-score)” value [39] was -0.347 and the “glycan array binding signal (z-score)” value [40] was -0.456.

From the supplement of paper PMC8728848
